Among all 350,000 compounds or so, about 9,900 (2.8%) were called active. Inconclusive results, whose numbers are uncertain, are shown with a selection of clear calls. Calls come from the whole dose curve; as a rule, active = well fitted activation curve with a large enough effect; inconclusive = small, poorly fitted or top-dose-only effect; inactive = no such curve, though single readings can be large or run the other way. No potency is given beside an inconclusive call; the fits are too rough.
experiment: A quantitative high throughput screen for small molecules that induce DNA re-replication in MCF 10a normal breast cells.; note: nearly all actives have a fitted effect of over 50% in size; for activity, positive = re-replication: % of control where 0% means no effect; settings: MCF 10A DNA re-replication, Hoechst nuclear intensity, 48 h; activity, positive = re-replication: at 46.1 µM (top of the series)
Potency is the fitted concentration of half-maximal effect; tags give direction and shape of the fitted curve.

SMILES | activity, positive = re-replication | Potency
CCN(CC)S(=O)(=O)c1ccc(N2CCCC2)c(NC(=O)CN2C(=O)NC3(CCCC3)C2=O)c1 | inactive: -1.41% | –
COc1cc(C(=O)OCC(=O)N2CCCCC2C)cc(NC(=O)c2cccs2)c1OC (configuration not stated) | inactive: -5.6% | –
COc1ccc(-c2cc(C(F)(F)F)nc(NCc3cccs3)n2)cc1 | inactive: -0.688% | –
O=C(O)CCC1(CCC(=O)O)CCCC(CCC(=O)O)(CCC(=O)O)C1=O | inactive: -1.71% | –
CCN1CCN(c2ccc(S(=O)(=O)N3CCCCC3)cc2NC(=O)CC(C)c2ccccc2)CC1 (configuration not stated) | – | inconclusive [activator, partial curve, poor fit]
C=CCN1C(=O)C(O)(CC(=O)c2ccc(N)cc2)c2ccccc21 (configuration not stated) | – | inconclusive [activator, single point]
Cc1cccc(NC(=O)CSc2nc3ccccc3nc2N2CCCC2)c1C | – | inconclusive [activator, full curve, poor fit]
Cn1c(CC2C(=O)Nc3ccc(Br)cc32)nc2ccccc2c1=O (configuration not stated) | – | inconclusive [activator, single point]
COC(=O)COc1ccc(S(=O)(=O)N2CCCCC2)cc1[N+](=O)[O-] | inactive: -6.63% | –
Oc1ccccc1-c1nc(/C=C/c2ccccc2)nn1-c1ccccc1 | – | inconclusive [activator, partial curve, poor fit]
C=CCn1c(C)cc(C(=O)CSc2nc3ccccc3c(=O)[nH]2)c1C | – | inconclusive [activator, single point]
Cc1ccc(OCCNc2cc(N3CCN(CCO)CC3)ccc2[N+](=O)[O-])cc1C | – | inconclusive [activator, single point]
CCC(C)(C)C1CCC2(CC1)NC(=O)N(CC(=O)N(C)Cc1ccc(OC(F)F)cc1)C2=O (configuration not stated) | – | inconclusive [activator, partial curve, poor fit]
C=CCC1Cc2c(Br)cccc2C(CC=C)N1 (configuration not stated) | – | active: 0.92 µM
OCC1OC(n2ccc3c(NO)ncnc32)C(O)C1O (configuration not stated) | – | active: 0.164 µM
CC(=O)NCCc1c[nH]c2ccc(O)cc12 | – | inconclusive [activator, full curve, poor fit]
COc1cc(OC)c(C(=O)CCCN2CCCC2)c(OC)c1 | – | inconclusive [activator, full curve, poor fit]
CCN(CC)S(=O)(=O)c1ccc(C(=O)Nc2cc(S(=O)(=O)N3CCOCC3)ccc2N2CCN(C)CC2)cc1 | inactive: 7.83% | –
Cn1cnc([N+](=O)[O-])c1SCC(=O)NN | – | inconclusive [activator, partial curve, poor fit]
COc1ccc(/C=N/OCC(=O)NC(c2ccccc2)c2ccccc2)c(OC)c1 | – | inconclusive [activator, partial curve]
CCC1CCCCN1C(=O)CCn1c(=O)oc2ccccc21 (configuration not stated) | inactive: 3.35% | –
CCNc1nc(NC(C)(C)C)nc(N(C#N)CC)n1 | – | inconclusive [activator, full curve, poor fit]
Nc1cc(=O)[nH]c(SCC(=O)N2N=C(c3ccc(Cl)cc3)CC2c2ccco2)n1 (configuration not stated) | – | inconclusive [activator, single point]

SMILES | activity, positive = re-replication | Potency
COC(=O)C1=C(C(=O)OC)[C@@H]2N(Cc3ccccc3)c3ccccc3[C@@]23C[C@@H](C(=O)OC)N(C(=O)c2ccc(Br)cc2)C3=N1 | – | inconclusive [activator, partial curve, poor fit]
O=C(COC(=O)c1ccc[n+]([O-])c1)Nc1ccccc1OC(F)F | inactive: -0.599% | –
Cc1cccc2cc(/C=N/Nc3ccc(C(=O)O)cc3)c(Cl)nc12 | – | active: 3.66 µM
O=C(COC(=O)c1ccccc1Nc1ccccc1)NCc1ccco1 | – | inconclusive [activator, single point]
CCOc1ccc(-n2nnnc2SCC(=O)Nc2cccc(O)c2)cc1 | – | inconclusive [activator, single point]
CC1CCCN(C(=O)Cc2cn(Cc3cccc(Cl)c3)c3ccccc23)C1 (configuration not stated) | – | inconclusive [activator, single point]
CCOC(=O)c1ccc(Nc2nc(C)nc3c2nnn3Cc2ccccc2)cc1 | – | inconclusive [activator, partial curve]
O=C(O)/C=C\C(=O)Nc1ccc(OCc2ccccc2)cc1 | – | inconclusive [activator, full curve, poor fit]
CCCn1c(CNc2ccccc2O)nc2ccccc21 | – | inconclusive [activator, single point]
Cc1cc(N2CCC(C(=O)NC3CCCCC3)CC2)nc(-c2ccccc2)n1 | – | inconclusive [activator, single point]
C=CCn1c(-c2ccc(OC)cc2)csc1=Nc1c(C)n(C)n(-c2ccccc2)c1=O | inactive: 0.659% | –
Cc1ccccc1OCc1nnc(SCc2nc3ccccc3c(=O)[nH]2)n1C | inactive: -1.55% | –
COC(=O)c1ccc(C(=O)OC)c(NC(=O)CN2CCC(C)CC2)c1 | – | inconclusive [activator, partial curve, poor fit]
COc1ccc(C2=NOC(COc3ccc([N+](=O)[O-])cc3)C2)cc1 (configuration not stated) | – | inconclusive [activator, partial curve, poor fit]
Cc1ccc(C)c(OCCC(=O)OCC(=O)NNC(=O)c2ccccc2)c1 | – | inconclusive [activator, partial curve, poor fit]
Cc1cc2c(=O)oc(-c3ccccc3Br)nc2s1 | – | inconclusive [activator, partial curve, poor fit]
COCCN(C(=O)CSc1nnc(-c2ccccc2F)n1C)c1c(N)n(Cc2ccccc2)c(=O)[nH]c1=O | – | inconclusive [activator, single point]
COc1ccc(-c2oc3ncnc(NCCCO)c3c2-c2ccc(OC)cc2)cc1 | – | inconclusive [activator, single point]
O=C(Nn1cnnc1)c1cc(-c2cccc(Br)c2)nc2ccccc12 | – | inconclusive [activator, single point]
O=C(C1=C[C@@H](c2ccc(C(F)(F)F)cc2)C[C@@H](OCCCCO)O1)N1CCCCCCC1 | – | inconclusive [activator, full curve, poor fit]
C/C(=N\N=c1/sc2ccccc2n1C)c1ccc(N2CCOCC2)cc1 | – | inconclusive [activator, single point]
CCC(=O)Nc1nc2ccc3sc(C)nc3c2s1 | inactive: -7.24% | –
Cc1nnc(NC(=O)CCn2c(=O)oc3ccccc32)s1 | inactive: 1.73% | –

SMILES | activity, positive = re-replication | Potency
CC(=C\c1ccco1)/C=C(\C#N)C(=O)NCCc1c[nH]c2ccccc12 | – | inconclusive [activator, single point]
O=C(O)CN1C(=O)/C(=C\c2cccc(OCc3ccc(Cl)cc3Cl)c2)SC1=S | – | inconclusive [activator, partial curve, poor fit]
O=C(c1ccccc1)N1CCC(c2nc3c(nnn3Cc3ccccc3Cl)c(=O)[nH]2)CC1 | inactive: -1.56% | –
COc1ccc(OC2C(=O)N(CCc3ccc(OC)c(OC)c3)C2c2ccc3c(c2)OCO3)cc1 (configuration not stated) | – | inconclusive [activator, partial curve, poor fit]
CN1CCN(CCCCOc2cccc3ccccc23)CC1 | – | inconclusive [activator, single point]
C=CCn1ccc2c([N+](=O)[O-])cccc2c1=O | inactive: -4.21% | –
Nc1nc(Nc2cccc(F)c2)nc(NCc2ccco2)c1[N+](=O)[O-] | – | inconclusive [activator, single point]
CC1(C)C(=O)Nc2ccccc2N1C(=O)Cn1ncc(Cl)c(Cl)c1=O | – | inconclusive [activator, full curve, poor fit]
CCn1c(SCC(=O)c2cc(OC)ccc2OC)nnc1C1CC1 | inactive: 1.43% | –
COc1ccccc1N1CCN(C(=O)CNC(=O)c2ccc(Cl)cc2Cl)CC1 | inactive: 22.4% | –
Cc1cccc2sc(N(CCCN(C)C)C(=O)c3sc4ccccc4c3Cl)nc12 | – | inconclusive [activator, single point]
CC1(C)Cc2c(C#N)c(N3CCN(C(=O)c4ccco4)CC3)nc(Cc3ccccc3)c2CO1 | – | inconclusive [activator, single point]
c1ccc(N2CC3CCc4ccccc4C3=N2)cc1 (configuration not stated) | – | active: 20.6 µM
CCOc1ccc(-c2nnc(-c3ccccc3)n2-c2ccccc2)cc1 | – | inconclusive [activator, partial curve, poor fit]
FC(F)(F)c1cnc(NNC(=S)Nc2cccnc2)c(Cl)c1 | – | inconclusive [activator, partial curve]
Cc1nn(C2CCS(=O)(=O)C2)c(Cl)c1/C=C/C(=O)OCC(=O)Nc1ccccc1OC(F)F (configuration not stated) | inactive: -1.13% | –
CC(=O)c1ccc(Nc2nc(-c3ccccc3)nc3ccccc23)cc1 | – | inconclusive [activator, partial curve, poor fit]
Cc1ccc(S(=O)(=O)N(CC(=O)NCC2CCCO2)Cc2ccc(F)cc2)cc1 (configuration not stated) | inactive: 8.73% | –
OCC1=C[C@@H](O)[C@@H]2C=CO[C@@H](O[C@@H]3O[C@H](CO)[C@@H](O)[C@H](O)[C@H]3O)[C@H]12 | inactive: 2.22% | –
CC(C)CN1C(=O)C(=O)N(CC(=O)Nc2cc(Cl)ccc2Oc2ccccc2)C1=O | inactive: 0.955% | –
CCOc1ccc(C(=O)Nc2ccc(N3CCN(C)CC3)cc2)cc1[N+](=O)[O-] | inactive: 7.78% | –

Source: PubChem BioAssay AID624296 (National Center for Advancing Translational Sciences (NCATS), 2012)
